In PMC7948509:
These are yes or no findings as the source states them, for the method shown. Binding seen in cells or lysates may run through a third protein. Some entries that bind do so weakly or less than the wild type. For some of these results: Sequences can lack the tags named with a protein. One block for each molecule: values may come before it.

Sequences of proteins named here, by UniProt entry; tags and fusion partners are left off.
UniProt P46937: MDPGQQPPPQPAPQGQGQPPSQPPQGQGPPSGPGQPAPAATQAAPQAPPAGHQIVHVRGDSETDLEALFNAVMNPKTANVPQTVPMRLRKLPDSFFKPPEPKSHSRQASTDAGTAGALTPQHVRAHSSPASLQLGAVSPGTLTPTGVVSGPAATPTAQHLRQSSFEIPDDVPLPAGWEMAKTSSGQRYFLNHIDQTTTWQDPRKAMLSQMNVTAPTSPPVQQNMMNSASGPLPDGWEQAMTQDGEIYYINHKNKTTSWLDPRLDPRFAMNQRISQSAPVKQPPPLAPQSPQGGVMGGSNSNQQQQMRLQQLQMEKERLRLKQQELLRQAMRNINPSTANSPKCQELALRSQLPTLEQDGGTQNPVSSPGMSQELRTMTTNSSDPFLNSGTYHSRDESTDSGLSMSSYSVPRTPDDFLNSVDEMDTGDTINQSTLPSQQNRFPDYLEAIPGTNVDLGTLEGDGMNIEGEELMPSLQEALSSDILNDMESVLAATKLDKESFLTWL
UniProt Q9BSQ5: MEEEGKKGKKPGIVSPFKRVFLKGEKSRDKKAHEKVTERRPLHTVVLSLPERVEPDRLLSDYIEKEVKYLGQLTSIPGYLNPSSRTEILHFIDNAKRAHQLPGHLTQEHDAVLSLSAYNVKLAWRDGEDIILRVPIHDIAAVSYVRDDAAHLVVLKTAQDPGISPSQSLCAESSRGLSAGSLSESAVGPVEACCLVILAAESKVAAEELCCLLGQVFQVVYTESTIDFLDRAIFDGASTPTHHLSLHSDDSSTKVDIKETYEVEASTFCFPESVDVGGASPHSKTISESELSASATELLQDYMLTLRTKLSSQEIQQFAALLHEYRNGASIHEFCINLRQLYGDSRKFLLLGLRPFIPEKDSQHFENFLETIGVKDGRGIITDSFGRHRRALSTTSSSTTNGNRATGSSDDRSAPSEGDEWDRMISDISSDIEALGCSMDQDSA
UniProt Q9BUL8: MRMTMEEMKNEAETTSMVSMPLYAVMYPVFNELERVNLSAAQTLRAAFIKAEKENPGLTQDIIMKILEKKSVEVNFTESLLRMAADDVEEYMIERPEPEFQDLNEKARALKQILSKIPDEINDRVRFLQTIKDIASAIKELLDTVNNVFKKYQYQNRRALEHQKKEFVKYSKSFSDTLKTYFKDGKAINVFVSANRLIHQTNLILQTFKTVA
UniProt Q9GZV5: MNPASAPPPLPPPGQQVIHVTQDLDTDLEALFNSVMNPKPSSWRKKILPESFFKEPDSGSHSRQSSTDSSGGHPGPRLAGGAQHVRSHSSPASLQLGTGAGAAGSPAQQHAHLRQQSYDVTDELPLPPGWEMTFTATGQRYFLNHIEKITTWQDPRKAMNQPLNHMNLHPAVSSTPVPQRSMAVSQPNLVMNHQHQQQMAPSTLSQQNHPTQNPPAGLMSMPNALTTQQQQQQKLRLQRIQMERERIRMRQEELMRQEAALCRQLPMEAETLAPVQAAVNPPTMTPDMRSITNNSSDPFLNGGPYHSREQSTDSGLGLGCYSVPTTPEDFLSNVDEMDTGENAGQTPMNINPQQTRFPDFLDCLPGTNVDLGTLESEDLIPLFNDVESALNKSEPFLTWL

Legend:
MEKK2-Flag (human) = target: T1, MEKK2-Flag (human) (UniProt Q9Y2U5); assay: co-IP; LATS1/2 DKO HEK293A cells transiently transfected; MEKK2-Flag or MEKK3-Flag immunoprecipitated; associated HA-tagged protein detected by immunoblotting (Fig. 3A, 3B)
T1 sequence: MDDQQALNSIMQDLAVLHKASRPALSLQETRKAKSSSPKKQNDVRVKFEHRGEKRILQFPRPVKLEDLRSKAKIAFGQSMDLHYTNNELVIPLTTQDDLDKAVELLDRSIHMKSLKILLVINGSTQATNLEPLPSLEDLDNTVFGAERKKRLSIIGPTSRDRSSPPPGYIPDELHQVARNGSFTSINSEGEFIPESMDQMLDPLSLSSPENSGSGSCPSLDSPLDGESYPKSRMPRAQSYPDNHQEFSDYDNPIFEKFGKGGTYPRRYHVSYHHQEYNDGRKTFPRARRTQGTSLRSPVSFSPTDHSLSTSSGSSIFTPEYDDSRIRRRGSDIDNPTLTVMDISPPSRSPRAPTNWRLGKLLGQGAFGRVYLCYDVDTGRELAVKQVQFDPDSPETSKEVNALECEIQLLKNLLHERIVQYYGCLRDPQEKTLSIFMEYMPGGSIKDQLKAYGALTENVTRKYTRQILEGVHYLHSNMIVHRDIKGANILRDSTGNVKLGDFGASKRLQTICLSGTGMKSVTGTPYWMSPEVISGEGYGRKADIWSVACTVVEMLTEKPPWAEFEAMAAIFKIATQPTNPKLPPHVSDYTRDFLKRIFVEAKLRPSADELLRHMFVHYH

MEKK3-Flag (human) = target: T2, MEKK3-Flag (human) (UniProt Q99759); assay: as above
T2 sequence: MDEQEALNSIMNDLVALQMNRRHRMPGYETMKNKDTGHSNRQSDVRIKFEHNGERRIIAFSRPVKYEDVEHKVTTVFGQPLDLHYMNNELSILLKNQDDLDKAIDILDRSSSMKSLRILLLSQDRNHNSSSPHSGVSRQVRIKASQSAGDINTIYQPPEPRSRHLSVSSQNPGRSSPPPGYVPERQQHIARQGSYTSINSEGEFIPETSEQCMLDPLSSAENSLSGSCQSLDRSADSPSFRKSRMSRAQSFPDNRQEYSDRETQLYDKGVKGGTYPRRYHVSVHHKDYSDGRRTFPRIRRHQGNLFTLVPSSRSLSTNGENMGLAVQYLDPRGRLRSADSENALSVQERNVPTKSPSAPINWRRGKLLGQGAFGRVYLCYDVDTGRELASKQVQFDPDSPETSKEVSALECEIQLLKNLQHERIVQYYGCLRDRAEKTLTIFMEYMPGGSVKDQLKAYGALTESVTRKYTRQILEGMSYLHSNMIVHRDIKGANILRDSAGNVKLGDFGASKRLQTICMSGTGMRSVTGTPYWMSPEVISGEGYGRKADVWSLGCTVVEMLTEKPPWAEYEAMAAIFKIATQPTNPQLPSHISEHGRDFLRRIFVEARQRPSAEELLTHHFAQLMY

MEKK3-HA (human) = target: T3, MEKK3-HA (human) (UniProt Q99759); assay: co-IP; MEKK3-HA co-expressed with both CCM2-Flag and CCM3-Flag in HEK293A cells; immunoprecipitation by anti-HA antibody; detection by anti-Flag antibody (Fig. S6B, 6C untreated)
T3 sequence: T2 sequence

[1] = target: T4, LATS1 (endogenous) (human (endogenous in HEK293T)) (UniProt O95835); assay: co-IP; endogenous LATS1 immunoprecipitated from YAP/TAZ knockdown HEK293T cells; immunoblot with anti-MEKK2 and anti-MEKK3 antibodies (Fig. 2G)
T4 sequence: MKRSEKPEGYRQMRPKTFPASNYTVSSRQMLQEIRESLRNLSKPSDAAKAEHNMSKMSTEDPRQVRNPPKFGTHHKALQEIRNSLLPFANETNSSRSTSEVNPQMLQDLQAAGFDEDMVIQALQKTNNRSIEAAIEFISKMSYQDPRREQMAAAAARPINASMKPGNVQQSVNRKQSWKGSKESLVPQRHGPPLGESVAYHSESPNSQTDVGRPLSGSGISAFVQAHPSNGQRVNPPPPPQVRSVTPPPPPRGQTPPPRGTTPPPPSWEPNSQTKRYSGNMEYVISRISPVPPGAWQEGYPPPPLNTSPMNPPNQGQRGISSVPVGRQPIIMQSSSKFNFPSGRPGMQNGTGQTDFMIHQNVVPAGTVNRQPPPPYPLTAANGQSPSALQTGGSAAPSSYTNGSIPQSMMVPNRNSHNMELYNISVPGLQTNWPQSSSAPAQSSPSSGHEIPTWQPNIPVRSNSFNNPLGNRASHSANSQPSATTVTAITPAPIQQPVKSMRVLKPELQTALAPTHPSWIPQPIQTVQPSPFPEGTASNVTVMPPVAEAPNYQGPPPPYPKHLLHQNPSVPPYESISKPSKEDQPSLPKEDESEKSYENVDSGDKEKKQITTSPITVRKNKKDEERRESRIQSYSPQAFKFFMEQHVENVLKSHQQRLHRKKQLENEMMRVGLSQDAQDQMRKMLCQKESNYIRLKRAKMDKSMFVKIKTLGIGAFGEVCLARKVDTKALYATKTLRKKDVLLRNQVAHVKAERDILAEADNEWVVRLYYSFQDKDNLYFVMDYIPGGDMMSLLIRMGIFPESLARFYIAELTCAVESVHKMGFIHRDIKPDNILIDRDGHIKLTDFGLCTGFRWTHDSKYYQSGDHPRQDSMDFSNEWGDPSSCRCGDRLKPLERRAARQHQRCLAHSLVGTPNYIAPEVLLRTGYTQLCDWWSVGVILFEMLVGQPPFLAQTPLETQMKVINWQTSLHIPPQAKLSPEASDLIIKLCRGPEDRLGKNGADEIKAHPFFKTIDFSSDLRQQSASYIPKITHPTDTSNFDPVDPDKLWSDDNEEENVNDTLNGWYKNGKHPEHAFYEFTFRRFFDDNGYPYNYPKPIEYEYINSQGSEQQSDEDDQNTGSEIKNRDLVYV

[2] = target: YAP (endogenous) (human (endogenous in HEK293A)) (UniProt P46937); assay: co-IP; endogenous; immunoprecipitation from LATS1/2 DKO HEK293A cell lysates by anti-YAP antibody; blotted with anti-YAP, MEKK2 or MEKK3 antibodies (Fig. 3C)
CCM2-Flag = CCM2-Flag (UniProt Q9BSQ5); assay: co-IP; HEK293T cells transfected with the tagged plasmids; lysis in 50 mM Tris pH 7.4, 150 mM NaCl, 1% NP-40, 1 mM EDTA; anti-Flag M2 magnetic beads, 4 °C overnight; immunoblot for the HA-tagged partner (Fig. 2F, 6A, 6B); MEKK2/3 with LATS1/2 also in YAP/TAZ knockdown cells (Fig. S2G-I)
CCM3-Flag = CCM3-Flag (UniProt Q9BUL8); assay: as above
Flag-YAP = Flag-YAP (UniProt P46937); assay: as above

Molecule: HA-TAZ (from UniProt Q9GZV5 1-400)
- binding (MEKK2-Flag (human)): binds
- binding (MEKK3-Flag (human)): binds

B1: MEKK3 (endogenous) (protein, UniProt Q99759 1-626)
chain: T2 sequence
- binding [1]: binds
- binding [2]: binds

B2: MEKK3-HA (protein, UniProt Q99759 1-626)
chain: T2 sequence
- binding (CCM2-Flag): binds

B3: MEKK2 (endogenous) (protein, UniProt Q9Y2U5 1-619)
chain: T1 sequence
- binding [1]: binds
- binding [2]: binds

Further lines, results first:

- binding (MEKK2-Flag (human)): binds
- binding (MEKK3-Flag (human)): binds
Molecule: HA-YAP (from UniProt P46937 1-504)

- binding (MEKK3-HA (human)): binds
Molecule: CCM2-Flag (from UniProt Q9BSQ5 1-444)

- binding (CCM2-Flag): no binding
- binding (CCM3-Flag): no binding
- binding (Flag-YAP): binds
B4: MEKK2-HA (protein, UniProt Q9Y2U5 1-619)
chain: T1 sequence
